Laboratory results taken from US10702575B2, “Pharmaceutical composition for preventing or treating mycobacterium species infection and method using the same” (Seoul National University R&DB Foundation, priority 2017, dated 2020).
*1 amine or outer side, *2 acyl side, *3 side chain or, on linkers, in order; H or OH if unused. Where a SMILES comes first, the peptide text is derived from it. Bridges are numbered along the chain shown (N, C = ends). [ ]: non-standard residue; d: D form. The star is where a group is joined. ξ: configuration not given here. NMeTrp(4-OMe) = CN[CH](Cc1c[nH]c2cccc(OC)c12)C(=O)O; X1 = O=C(C(N[*:1])C(O)c1ccccc1)[*:2]; ξNMe2Val = CC(C)C(C(=O)*)N(C)C; NMeT = CN[CH](C(=O)O)[CH](C)O; NMeL = CN[CH](CC(C)C)C(=O)O; NMeV = CN[CH](C(=O)O)C(C)C

Test system: Mtb-infected macrophage
Settings: 1 μM, 5 μM, 10 μM, about 24 hours

SMILES	amount of IL-1β secreted (FIG. 12A)	amount of IL-6 secreted (FIG. 12A)	amount of IL-12 p40 secreted (FIG. 12A)	amount of TNF-α secreted (FIG. 12A)
CNC(C(=O)NC(C(=O)NC1C(=O)N(C)C(C(C)O)C(=O)NC(C(C)C)C(=O)N(C)C(CC(C)C)C(=O)NC(C(C)C)C(=O)N(C)C(C(C)C)C(=O)N(C)C(Cc2c[nH]c3cccc(OC)c23)C(=O)NC(C(C)C)C(=O)NC(C(O)c2ccccc2)C(=O)NC(C(C)C)C(=O)OC1C)C(C)C)C(C)C (centres unmarked) [OMS-A, Ohmyungsamycin A] (H-[NMeV]VT[NMeT]V[NMeL]V[NMeV][NMeTrp(4-OMe)]V[X1]V; ester 3-C; configuration not given here)	decreased in a concentration-dependent manner	decreased in a concentration-dependent manner	decreased in a concentration-dependent manner	decreased in a concentration-dependent manner
COc1cccc2[nH]cc(CC3C(=O)NC(C(C)C)C(=O)NC(C(O)c4ccccc4)C(=O)NC(C(C)C)C(=O)OC(C)C(NC(=O)C(NC(=O)C(C(C)C)N(C)C)C(C)C)C(=O)N(C)C(C(C)O)C(=O)NC(C(C)C)C(=O)N(C)C(CC(C)C)C(=O)NC(C(C)C)C(=O)N(C)C(C(C)C)C(=O)N3C)c12 (centres unmarked) [OMS-B, Ohmyungsamycin B] (ξNMe2Val-VT[NMeT]V[NMeL]V[NMeV][NMeTrp(4-OMe)]V[X1]V; ester 2-C; configuration not given here)	decreased in a concentration-dependent manner	decreased in a concentration-dependent manner	decreased in a concentration-dependent manner	decreased in a concentration-dependent manner
